The results in this text go back to paper PMC3062617.

The chains behind the UniProt entries cited, without tags or fusion partners.
UniProt P40417: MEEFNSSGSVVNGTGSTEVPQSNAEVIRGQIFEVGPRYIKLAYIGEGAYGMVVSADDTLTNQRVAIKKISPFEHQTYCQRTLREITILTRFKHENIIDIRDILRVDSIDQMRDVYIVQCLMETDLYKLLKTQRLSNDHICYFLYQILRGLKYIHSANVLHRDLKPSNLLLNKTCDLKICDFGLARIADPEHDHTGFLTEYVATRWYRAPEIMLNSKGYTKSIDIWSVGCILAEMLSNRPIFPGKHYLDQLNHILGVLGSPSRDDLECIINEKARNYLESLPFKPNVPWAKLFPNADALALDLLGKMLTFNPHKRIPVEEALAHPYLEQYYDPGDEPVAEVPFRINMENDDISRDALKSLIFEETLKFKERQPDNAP

The target of experiment [1] is T1, GST-C127/207 (Corto chromodomain) (Drosophila) (UniProt P41046).
T1 sequence: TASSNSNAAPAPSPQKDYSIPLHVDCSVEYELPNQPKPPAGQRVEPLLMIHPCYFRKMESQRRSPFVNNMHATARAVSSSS
Nature of the experiment: pull-down; GST-Corto fragment fusion proteins on beads, in vitro translated 35S-ERK, autoradiography; only the target purified.

The target of experiment [2] is T2, GST-C418/503 (part of the two COOH-terminal globular domains of Corto) (Drosophila) (UniProt P41046).
T2 sequence: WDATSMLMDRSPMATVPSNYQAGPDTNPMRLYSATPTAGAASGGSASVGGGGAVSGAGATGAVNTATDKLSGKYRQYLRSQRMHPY
The experiment is described as above.

Experiment [3] concerns the target T3, GST-C325/550 (COOH-terminal half of Corto) (Drosophila) (UniProt P41046).
T3 sequence: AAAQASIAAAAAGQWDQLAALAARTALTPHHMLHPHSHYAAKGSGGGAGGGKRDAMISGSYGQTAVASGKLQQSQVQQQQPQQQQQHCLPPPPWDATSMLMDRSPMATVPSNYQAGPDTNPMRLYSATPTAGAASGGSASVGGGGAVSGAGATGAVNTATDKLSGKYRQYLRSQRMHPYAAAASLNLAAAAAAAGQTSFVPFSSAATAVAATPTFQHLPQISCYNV
Described as above.

The target in experiment [4] is T4, GST-C1/324 (NH2-terminal half of Corto) (Drosophila) (UniProt P41046).
T4 sequence: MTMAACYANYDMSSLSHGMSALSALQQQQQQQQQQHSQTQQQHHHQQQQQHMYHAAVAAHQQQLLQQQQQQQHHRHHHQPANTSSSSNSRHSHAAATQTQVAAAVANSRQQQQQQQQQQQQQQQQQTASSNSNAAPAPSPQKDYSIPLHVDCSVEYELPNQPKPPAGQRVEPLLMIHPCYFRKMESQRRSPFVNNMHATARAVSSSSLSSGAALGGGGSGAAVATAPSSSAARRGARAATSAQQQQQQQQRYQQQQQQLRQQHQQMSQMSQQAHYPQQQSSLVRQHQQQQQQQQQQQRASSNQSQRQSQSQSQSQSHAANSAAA
The experiment is described as above.

Experiment [5] concerns the target ERK-FLAG (Drosophila) (UniProt P40417). Nature of the experiment: co-IP; nuclear extracts of S2 cells expressing tagged proteins; 500 ug extract, anti-FLAG IP (anti-HA mock IP), protein G-agarose beads, blot with anti-FLAG or anti-Myc.
Experiment [6] shares this target. As to the kind of experiment: co-IP; cytoplasmic extracts of S2 cells expressing tagged proteins (two protocols of extraction); 500 ug extract, anti-FLAG IP (anti-HA mock IP), protein G-agarose beads.
Experiment [7] deals with di-phosphorylated form of ERK (dP-ERK), endogenous (Drosophila (endogenous in embryos)) (UniProt P40417). As to the kind of experiment: co-IP; endogenous proteins, total embryonic extract; monoclonal anti-dP-ERK E10 antibody covalently bound onto protein G-agarose beads; blot with rat anti-Corto antibodies.

These are yes or no findings as the source states them, for the method shown. In cells and extracts the contact can be indirect. Some results given as binding are weak or reduced against the parent protein; the word gives no strength. For some of these results: Where a sequence is shown, tags or fusion partners need not be part of it.

As for “in vitro translated 35S-ERK (from UniProt P40417 1-376) (enzyme)”, the binding result is given as “no binding” in experiment [1], “no binding” in experiment [2], “binds” in experiment [3] and “binds” in experiment [4].

B1: Corto-Myc (protein, UniProt P41046 1-550)
chain: MTMAACYANYDMSSLSHGMSALSALQQQQQQQQQQHSQTQQQHHHQQQQQHMYHAAVAAHQQQLLQQQQQQQHHRHHHQPANTSSSSNSRHSHAAATQTQVAAAVANSRQQQQQQQQQQQQQQQQQTASSNSNAAPAPSPQKDYSIPLHVDCSVEYELPNQPKPPAGQRVEPLLMIHPCYFRKMESQRRSPFVNNMHATARAVSSSSLSSGAALGGGGSGAAVATAPSSSAARRGARAATSAQQQQQQQQRYQQQQQQLRQQHQQMSQMSQQAHYPQQQSSLVRQHQQQQQQQQQQQRASSNQSQRQSQSQSQSQSHAANSAAAAAAQASIAAAAAGQWDQLAALAARTALTPHHMLHPHSHYAAKGSGGGAGGGKRDAMISGSYGQTAVASGKLQQSQVQQQQPQQQQQHCLPPPPWDATSMLMDRSPMATVPSNYQAGPDTNPMRLYSATPTAGAASGGSASVGGGGAVSGAGATGAVNTATDKLSGKYRQYLRSQRMHPYAAAASLNLAAAAAAAGQTSFVPFSSAATAVAATPTFQHLPQISCYNV
For B1, the binding entry is “binds” with ERK-FLAG (Drosophila) [5] and “no binding (condition: in cytoplasmic extract)” with ERK-FLAG (Drosophila) [6].

B2: Corto (endogenous, total embryonic protein extract) (protein, UniProt P41046 1-550)
chain: B1 chain
For the molecule B2, the binding entry in experiment [7] was “binds”.
